Data: PubChem BioAssay AID894 (National Center for Advancing Translational Sciences (NCATS), 2007)
Where “and” joins values, the source holds several entries; their conditions need not be identical. Equal entries are not always repeated. In all, about 150,000 compounds went through this assay and about 6,500 (4.3%) were called active. Roughly 12% stayed inconclusive and do not appear here. The call rests on the fitted dose curve; in most records, active means well fitted inhibition curve with a large enough effect (not every such curve was filed as active); inconclusive means small, poorly fitted or top-dose-only effect, or another doubt; inactive means no such curve, though single readings can be large or run the other way. Only a part is listed here, and it is no random draw. A structure can be active in one record and inactive in another.

target: 15-hydroxyprostaglandin dehydrogenase [NAD(+)] (Homo sapiens) (UniProt P15428); test: qHTS Assay for Inhibitors of HPGD (15-Hydroxyprostaglandin Dehydrogenase); conditions: purified HPGD, NADH fluorescence kinetic, PGE2 substrate; activity change, negative = inhibition: active compounds read low
Excerpt: Human 15-Hydroxyprostaglandin dehydrogenase (HPGD) catalyzes the inactivation of prostaglandin E2, and plays a major role in cancer biology by antagonizing the oncogenic potential of cyclooxygenase type 2 (COX2). Assays are available, based on absorbance/fluorescence increase of NADH with the substrate 15-OH prostaglandin E2. References 1. Myung SJ, Rerko RM, Yan M, Platzer P, Guda K, Dotson A, Lawrence E, Dannenberg AJ, Lovgren AK, Luo G, Pretlow TP, Newman RA, Willis J, Dawson D, Markowitz SD. 15-Hydroxyprostaglandin dehydrogenase is an in vivo suppressor of colon tumorigenesis. […] 2. Yan M, Rerko RM, Platzer P, Dawson D, Willis J, Tong M, Lawrence E, Lutterbaugh J, Lu S, Willson JK, Luo G, Hensold J, Tai HH, Wilson K, Markowitz SD. 15-Hydroxyprostaglandin dehydrogenase, a COX-2 oncogene antagonist, is a TGF-beta-induced suppressor of human gastrointestinal cancers. Proc Natl Acad Sci U S A. 2004 Dec 14;101(50):17468-73. 3. Yang L, Amann JM, Kikuchi T, Porta R, Guix M, Gonzalez A, Park KH, Billheimer D, Arteaga CL, Tai HH, Dubois R, Carbone DP, Johnson DH. Inhibition of Epidermal Growth Factor Receptor Signaling Elevates 15-Hydroxyprostaglandin Dehydrogenase in Non-Small-Cell Lung Cancer. Cancer Res. 2007 Jun 15;67(12):5587-5593. Inhibition of HPGD activity was screened by utilizing prostaglandin as an electron donor and NAD+ as an electron acceptor/cofactor. An increase in the fluorescence intensity due to conversion of NAD+ to NADH was used to measure the enzyme activity. NIH Chemical Genomics Center [NCGC] Structural Genomics Consortium [SGC]
Buffer: 50 mM Tris-HCl, 0.01% Tween 20, pH 8. Enzyme Buffer: 50 mM Tris-HCl, 0.5 mM NAD+ and 0.01% Tween 20, pH 8. Reagents/Controls: Buffer in columns 3 and 4 as negative control (no enzyme). Substrate/cofactor solution: 1 mM NAD+ and 30 uM prostaglandin (Sigma, prostaglandin E2, # P5640) final concentrations dispensed throughout the plate. Enzyme: 20 nM HPGD final concentration in columns 1, 2, 5-48. Column 1 and 2 is neutral (100% activity). A titration of control inhibitor GW5074 (G6416 Sigma-Aldrich, St. Louis, MO) top concentration 10 mM in DMSO, then 1:2 dilution for a total of 16 concentrations in duplicate) was pin-transferred into column 2. Assay Steps: Three uL of enzyme were dispensed to 1536-well Greiner black solid bottom plates. Compounds and control inhibitor (23 nL) were transferred via Kalypsys PinTool. The plates were incubated for 15 min at room temperature, and then 1 uL of substrate/cofactor solution was added to start the reaction. The plates were immediately transferred to and read 5 times every 30 seconds on ViewLux High-throughput CCD imager (Perkin-Elmer) using 360 nm excitation and 450 nm emission fluorescence protocol. The fluorescence intensity difference between the last and the first time points was used to compute reaction progress.
On the % scale 0 is the no-effect control and ±100 the full control effect; potency means the concentration at half of the fitted maximal effect.

UniProt P15428, sequence (P15428 whole entry, looked up): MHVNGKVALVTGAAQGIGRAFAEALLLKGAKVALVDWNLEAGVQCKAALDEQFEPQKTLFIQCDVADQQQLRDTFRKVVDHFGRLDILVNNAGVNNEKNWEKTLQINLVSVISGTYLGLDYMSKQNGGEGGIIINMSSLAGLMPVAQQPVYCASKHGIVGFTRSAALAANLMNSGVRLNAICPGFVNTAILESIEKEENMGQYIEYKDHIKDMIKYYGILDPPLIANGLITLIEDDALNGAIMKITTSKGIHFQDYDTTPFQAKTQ

Row | SMILES | activity change, negative = inhibition | Potency
1 | CNC(C)[C@@H](O)c1ccccc1 (stereo partly specified) | inactive: -7.34% | –
2 | CC(C)c1cccc(C(C)C)c1O | inactive: -2.36% [middle of 4 runs] | –
3 | CCCCC[CH2][Hg][S]C1=C2N=CNC2NC(N)=N1 (stereo unspecified) | – | active: 0.708 µM
4 | N=C(N)SCc1ccc(Cl)c2ccccc12 (tested in a mixture with another compound) | inactive: -10.4% | –
5 | O=C(O)CNC(=O)C(CS)Cc1ccccc1 (stereo unspecified) | inactive: -13.3% | –
6 | O=C(O)c1ccccc1Nc1cccc(C(F)(F)F)c1 | inactive: -12.3% and inactive: -17.9% | –
7 | CCOC(=O)C1=C(C)NC(C)=C(C(=O)OC)C1c1cccc(Cl)c1Cl (stereo unspecified) | inactive: -19.6% and inactive: -13.7% | –
8 | COc1ccc(-c2nc3ccccc3n2OC(=O)N(C)C)cc1 | inactive: 77.6% | –
9 | NC(N)=Nc1ccc2[nH]c3c(c2c1)C[C@]1(O)[C@@H]2Cc4ccc(O)c5c4[C@]1(CCN2CC1CC1)[C@@H]3O5 | inactive: -13.9% | –
10 | CN(C)C(=O)On1c(-c2ccccc2)nc2ccc(Cl)cc21 | inactive: 124% | –
11 | c1ccc2c(c1)[nH]c1cnccc12 | inactive: -7.11% | –
12 | COc1cc(-c2ccc(=O)[nH]n2)ccc1OC(F)F | inactive: -21% | –
13 | CCCCCCCCC(=O)NCc1ccc(O)c(OC)c1 | inactive: -5.36% | –
14 | CCCCC/C=C\C/C=C\C/C=C\C/C=C\CCCC(=O)O | inactive: -3.23% | –
15 | CCCSc1ccc2nc(NC(=O)OC)[nH]c2c1 | inactive: -19.4% and inactive: -22.8% | –
16 | O=C1/C(=C/c2cc3c(cc2Cl)OCO3)N2CCC1CC2 | – | active: 22.4 µM
17 | O=c1c(O)c(-c2ccc(O)c(O)c2)oc2cc(O)cc(O)c12 | inactive: -25.3% and inactive: -12.4% and inactive: -26% | –
18 | CCCN1CCO[C@@H]2c3cc(O)ccc3OC[C@H]21 | inactive: -7.05% and inactive: -3.01% | –
19 | Brc1c(NC2=NCCN2)ccc2nccnc12 | – | active: 22.4 µM
20 | C=CCN1C(=O)/C(=C\c2ccc(N3CCOCC3)o2)C(=O)NC1=S | inactive: -23.1% | –
21 | COC(=O)NC(=S)Nc1ccccc1NC(=S)NC(=O)OC | inactive: -14.7% | –
22 | CC(C)(c1ccc(O)cc1)c1ccc(O)cc1 | inactive: -6.47% | –
23 | Cc1c(O)c(O)cc2c1CC=C1[C@]3(C)CC[C@]4(C)CC[C@@](C)(C(=O)O)CC4[C@]3(C)CC[C@]12C (stereo partly specified) | – | active: 17.8 µM
24 | COc1ccc(OCCn2cc(/C=C(\C#N)C(=O)NCc3ccco3)c3ccccc32)cc1 | inactive: 396% | –
25 | CNCCC(Oc1ccc(C(F)(F)F)cc1)c1ccccc1 (stereo unspecified) | inactive: 1.58% and inactive: -7.49% and inactive: 6.79% | –
26 | Clc1ccc(C(c2ccc(Cl)cc2)C(Cl)(Cl)Cl)cc1 | inactive: -8.03% | –

Row | SMILES | activity change, negative = inhibition | Potency
27 | CC[C@H]1CN2CCc3cc(OC)c(OC)cc3[C@H]2C[C@@H]1C[C@@H]1NCCc2cc(OC)c(OC)cc21 | inactive: -7.55% | –
28 | O=c1cc(-c2ccc(O)c(O)c2)oc2cc(O)cc(O)c12 | inactive: -28.8% | –
29 | CN(C)c1ccc(/C=C2/C(=O)NC(=O)N(Cc3ccco3)C2=O)cc1 | – | active: 10 µM
30 | CCn1cc(C(=O)O)c(=O)c2cc3c(cc21)OCO3 | inactive: -13.5% and inactive: -7.71% and inactive: -12.4% | –
31 | Cc1ccc(-c2nc3ccc(Cl)cc3n2OC(=O)N(C)C)cc1 | inactive: 37.3% | –
32 | C=C(C)[C@H]1Cc2c(ccc3c2O[C@@H]2COc4cc(OC)c(OC)cc4[C@@H]2C3=O)O1 | inactive: 0.318% and inactive: -12.3% | –
33 | CN(N=O)c1cc(O)ccc1O | – | active: 14.1 µM
34 | Nc1nc(=S)c2ncn([C@H]3O[C@@H](CO)[C@@H](O)[C@@H]3O)c2[nH]1 | inactive: -16.3% | –
35 | O=c1[nH]c(=O)n(CCC2=CCCCC2)c(O)c1C=Nc1cccc(F)c1 | inactive: 31.1% | –
36 | CC[C@H]1CN2CCc3cc(OC)c(OC)cc3[C@@H]2C[C@@H]1C[C@H]1NCCc2cc(OC)c(OC)cc21 | inactive: -7.73% and inactive: -5.8% | –
37 | CNC(C)C(O)c1ccccc1 (stereo unspecified) | inactive: -1.93% | –
38 | CN[C@@H]1C[C@H]2O[C@@](C)([C@@H]1OC)n1c3ccccc3c3c4c(c5c6ccccc6n2c5c31)C(=O)NC4 | inactive: -25.7% | –
39 | Cc1ccc(C(=O)c2ccc(CC(=O)O)n2C)cc1 | inactive: -25.9% | –
40 | CC1CCCC(=O)CCC/C=C/c2cc(O)cc(O)c2C(=O)O1 (stereo unspecified) | inactive: -21.5% | –
41 | NC(N)=NC(=O)c1nc(Cl)c(N)nc1N | inactive: -25% | –
42 | CNCC[C@@H](Oc1ccc(C(F)(F)F)cc1)c1ccccc1 | inactive: -11.7% | –
43 | c1ccc2cc3c(cc2c1)-c1cccc2cccc-3c12 | inactive: 45.6% | –
44 | NC1CC1c1ccccc1 (stereo unspecified) | inactive: -3.59% | –
45 | COc1cc(-n2c(=S)[nH]c3ccccc3c2=O)c(Cl)cc1Cl | inactive: 77.6% | –
46 | C[C@@H]1CC[C@H]2[C@@H](C)C(=O)O[C@@H]3OC4(C)CC[C@@H]1[C@]32OO4 | inactive: -7.73% | –
47 | Cc1ccc(-n2c(/C=C/c3ccc4c(c3)OCO4)nc3ccccc3c2=O)cc1 | inactive: 99% | –
48 | CCCC/C(C)=C/[C@@H](NP(=O)(c1ccccc1)c1ccccc1)c1ccccc1 | inactive: -13.8% | –
49 | Nc1nc(N)c2nc(CNc3ccc(C(=O)NC(CCC(=O)O)C(=O)O)cc3)cnc2n1 (stereo unspecified) | inactive: -26.6% | –
50 | CC(C(=O)O)c1ccc(-c2ccccc2)c(F)c1 (stereo unspecified) | inactive: -25.2% and inactive: -27.6% | –
51 | CCN(CC)c1ccc(/C=C2\C(=O)NC(=O)N(Cc3ccco3)C2=O)cc1 | – | active: 15.8 µM
